The whole screen tested about 140,000 compounds, of which about 240 (0.17%) were called active. Inconclusive results, whose numbers are uncertain, are shown with a selection of clear calls. Calls come from the whole dose curve; as a rule, active = well fitted inhibition curve with a large enough effect; inconclusive = small, poorly fitted or top-dose-only effect; inactive = no such curve, though single readings can be large or run the other way. Where the call is inconclusive, the potency comes from a doubtful curve fit.
Test: Primary qHTS assay for inhibitors of alpha-synuclein gene (SNCA) expression; note: nearly all actives have a fitted effect of over 45% in size;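 for activity change, negative = inhibition: plate controls were DMSO cells for no effect and cell-free wells for full effect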
Details: HEK-293 SNCA-luciferase knock-in, luminescence, 24 h; activity change, negative = inhibition: at 57.2 µM (top of the series) unless noted
Potency is the fitted concentration of half-maximal effect; tags give direction and shape of the fitted curve.

Activity change, negative = inhibition, inactive:
CN1C[C@H](O)C[C@H]1c1nnc2n1CCN(C(=O)C1CCC1)CC2 -12.1%
CN(Cc1cccnc1)c1nc2c(c(=O)[nH]1)CCN(Cc1ccccc1)CC2 3%
COc1cccc(-c2ccnc(-c3nnc(C)n3C3CCCCC3)c2)c1 20.1% [at 87.6 µM]
COC1CCN(c2cc(-c3ccccn3)nc3c(C)noc23)CC1 12.8% [at 87.6 µM]
COCCOc1ccc(C(=O)N[C@@H]2CN(C(=O)Nc3ccc(F)cc3)CCC[C@H]2O)cc1 2.51%
Cc1ccc(CNC(=O)N2CCCC(Cn3cnc4cccnc43)C2)cc1 (stereo unspecified) 3.47%
COc1ccc2c(C)c(-c3nc(C4CCOC4)no3)oc2c1 (stereo unspecified) 67.4%
COCC(=O)NC1CCN(C(=O)c2ccc(-c3ncccc3C#N)cc2)CC1 -1.47%
CN(C)C[C@@H]1CN(Cc2ccccn2)C[C@H]1NS(=O)(=O)Cc1ccccc1 -15%
COc1ncccc1-c1nc(-c2c(C)noc2C)cc2c1cc(-c1ccccc1)n2C -22.4% [at 87.6 µM]
CCOC(=O)c1c(C)oc2ncnc(N3CCN(c4ccccc4F)CC3)c12 -14%
Cc1cccnc1CN1C[C@@H](F)[C@@H](OCc2nc3ccccc3o2)C1 28.5% [at 87.6 µM]
COc1ccc(F)cc1-c1cccc(C(=O)NCCNC(=O)c2ccc(Cl)cc2)c1 4.96%
CSc1ccc(-c2nc(CN3CCN(C(=O)N(C)C)CC3)c(C)o2)cc1 33.4%
O=C(NCc1cccs1)c1csc(N2CCN(c3ccccc3F)CC2)n1 3.61%
CCN1c2cc(C(=O)Nc3ccc(Cl)c(F)c3)ccc2C(=O)N2CCCCC21 (stereo unspecified) -1.59%
Cc1ccccc1C(=O)N1CCC(n2cc(-c3nc(-c4ccccc4)no3)nn2)C1 (stereo unspecified) -17.5%
CCc1noc(-c2ccn3c(CNC(=O)C4CCCCC4)nnc3c2)n1 5.83%
COc1ccc(NC(=O)N2CC[C@H]3COC(=O)N3c3cc(C)ccc3C2)cc1 33.1% [at 87.6 µM]
O=C(CC1CCCCC1)NCc1nnc2cc(-c3nc(C4CC4)no3)ccn12 5.1%
Cc1ccc(OCc2nc(C3CN(C(=O)c4cc(C)nn4C)C3)no2)cc1 92.9%
Cc1ccccc1C(=O)NC1CCN(Cc2ccc(-c3ccsc3)cc2)C1 (stereo unspecified) 4.82%
CC(C)CC(=O)NC1CCCc2c1[nH]c1ccc(Cl)cc21 (stereo unspecified) -21.3%
CCOc1ccc(S(=O)(=O)N2CCC3(CC2)CN(C)CC3COC)cc1 (stereo unspecified) 7.54%

Potency, inconclusive:
O=C(NCc1ccc(F)cc1)c1nc(-c2ccccc2)c2cnccn12 8.91 µM [inhibitor, single point]
O=C(NC1CCCN(c2cc(N3CCCC3)ncn2)C1)c1cccnc1 (stereo unspecified) 2 µM [inhibitor, full curve, poor fit]
N#Cc1ccc(CN2CCC3(CC2)NC(=O)c2ccccc2O3)cc1 56.2 µM [inhibitor, single point]
O=c1cc(-c2ccncc2)oc2c(-c3ccccc3F)nccc12 15.8 µM [inhibitor, partial curve, poor fit]
CCCn1c(=O)sc2cc(NC(=O)COc3ccc(Cl)cc3)ccc21 28.2 µM [inhibitor, single point]
Cc1cccc(NC(=O)C2CCN(S(=O)(=O)c3ccc(F)cc3)CC2)c1C 20 µM [inhibitor, single point]
O=S(=O)(NCc1ccc(F)cc1)c1ccc(-c2cnc(C3CC3)o2)cc1 39.8 µM [inhibitor, single point]
CNC(=O)CCn1ncc2cc(OCc3ccccc3-c3ccc(F)cc3C)ccc21 25.1 µM [inhibitor, partial curve, poor fit]
Cc1ccc2nc(-c3ccccc3F)c(Nc3ccc(Cl)cc3)n2c1 22.4 µM [inhibitor, single point]
COCCN1CCC2(CCC1=O)CCN(S(=O)(=O)c1cc(C)ccc1C)CC2 10 µM [inhibitor, partial curve, poor fit]
COc1ccccc1-n1ncc2c(=O)[nH]c(SCC(=O)Nc3ccc(Cl)cc3)nc21 2.82 µM [inhibitor, single point]
CN(C)c1ccc(-c2nnnn2[C@H]2CO[C@H]3[C@@H]2OC[C@@H]3NS(=O)(=O)c2cccc3cccnc23)cc1 6.31 µM [inhibitor, single point]
CCCCS(=O)(=O)c1oc(-c2cccs2)nc1S(=O)(=O)c1ccccc1 15.8 µM [inhibitor, partial curve, poor fit]
COc1ccc(Cl)cc1NS(=O)(=O)c1ccc2[nH]c3c(c2c1)CCCC3 14.1 µM [inhibitor, partial curve, poor fit]
Cc1cc(C)c2oc(C(=O)Nc3ccc(S(=O)(=O)N4CCCCC4)cc3)cc(=O)c2c1 0.562 µM [inhibitor, full curve, poor fit]
CNC(=O)[C@H]1C[C@H](Oc2ccccc2)CN1C(=O)CCc1c[nH]c2ccccc12 10 µM [inhibitor, full curve, poor fit]
CN(C(=O)CSc1nc2ccc(NC(=O)COc3ccc(Cl)cc3)cc2s1)c1ccccc1 3.98 µM [inhibitor, single point]
COc1ccc(CNC(=O)CSc2nc3ccccc3nc2Cc2ccccc2)cc1 25.1 µM [inhibitor, single point]
COc1cc2c(cc1OC)C(C[C@H]1CN(C(=O)Nc3cccc(Cl)c3)CC[C@H]1CC(=O)O)=NCC2 0.316 µM [inhibitor, full curve, poor fit]
CCOc1ccc(N(CC)S(=O)(=O)N2CCCC(C(=O)Nc3cc(Cl)ccc3C)C2)cc1 (stereo unspecified) 28.2 µM [inhibitor, single point]
Cc1ccccc1OC(=O)CSc1nnc(-c2ccc3c(c2)OCO3)o1 10 µM [inhibitor, partial curve, poor fit]
CCCN(CCC)S(=O)(=O)c1ccc2c(c1)N(CC(=O)NCc1ccc(F)cc1Cl)C(=O)CS2 14.1 µM [inhibitor, single point]
